One test has as its target T1, SYCP1 (1-811) (human) (UniProt Q15431).
T1 sequence: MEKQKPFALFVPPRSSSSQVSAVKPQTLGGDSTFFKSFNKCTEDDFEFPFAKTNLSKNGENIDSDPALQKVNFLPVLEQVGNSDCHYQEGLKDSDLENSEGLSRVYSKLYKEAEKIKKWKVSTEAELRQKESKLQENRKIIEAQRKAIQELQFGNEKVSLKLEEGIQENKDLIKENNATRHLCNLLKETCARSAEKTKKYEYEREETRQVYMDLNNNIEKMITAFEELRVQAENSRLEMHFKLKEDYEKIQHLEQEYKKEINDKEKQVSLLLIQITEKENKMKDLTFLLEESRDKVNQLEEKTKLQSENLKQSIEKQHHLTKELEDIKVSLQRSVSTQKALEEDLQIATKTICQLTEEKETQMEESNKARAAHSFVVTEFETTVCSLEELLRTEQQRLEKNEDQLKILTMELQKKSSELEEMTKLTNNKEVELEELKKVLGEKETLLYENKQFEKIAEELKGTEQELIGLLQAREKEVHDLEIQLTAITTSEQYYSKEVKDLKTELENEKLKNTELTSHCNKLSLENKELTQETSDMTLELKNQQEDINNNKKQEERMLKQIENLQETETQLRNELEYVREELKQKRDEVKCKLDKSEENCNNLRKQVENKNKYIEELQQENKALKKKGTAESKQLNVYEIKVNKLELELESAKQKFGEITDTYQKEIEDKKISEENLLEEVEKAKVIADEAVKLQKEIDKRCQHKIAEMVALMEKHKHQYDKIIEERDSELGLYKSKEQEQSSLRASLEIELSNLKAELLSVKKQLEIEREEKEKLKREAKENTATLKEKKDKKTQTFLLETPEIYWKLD
Briefly: two-hybrid; Matchmaker Gold; pGBKT7 fusions in Y187 mated with pGADT7 fusions in Y2H Gold; growth on SD/-Trp/-Leu/-Ade/-His with X-α-gal, 5 days at 30°C.

The target in test [1] is T2, SYCP1αN-SYCE3 2:1 and 4:2 complexes (human) (UniProt Q15431+A1L190).
T2 sequence 1: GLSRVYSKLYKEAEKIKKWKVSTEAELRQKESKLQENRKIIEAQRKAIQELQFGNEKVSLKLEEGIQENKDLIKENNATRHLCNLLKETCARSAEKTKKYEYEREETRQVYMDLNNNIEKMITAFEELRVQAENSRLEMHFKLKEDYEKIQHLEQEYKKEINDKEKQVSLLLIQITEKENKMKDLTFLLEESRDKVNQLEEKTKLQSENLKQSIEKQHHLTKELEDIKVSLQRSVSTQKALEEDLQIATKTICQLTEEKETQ
T2 sequence 2: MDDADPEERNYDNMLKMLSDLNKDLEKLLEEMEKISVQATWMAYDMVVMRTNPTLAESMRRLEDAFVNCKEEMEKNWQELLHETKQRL
Briefly: SEC; pre-formed SYCP1-SYCE3 complex (92-93 μM) with a 10-fold molar excess of free SYCE3 or SYCE3 W41E Y44E, 1 h at 30°C; Superdex 200 Increase, 20 mM Tris pH 8.0, 150 mM KCl, 2 mM DTT; both purified. For orientation: SEC sorts molecules by how far they enter the pores of the column.

Test [2] has as its target T3, SYCP1αNcore-SYCE3 2:1 complex (human) (UniProt Q15431+A1L190).
T3 sequence 1: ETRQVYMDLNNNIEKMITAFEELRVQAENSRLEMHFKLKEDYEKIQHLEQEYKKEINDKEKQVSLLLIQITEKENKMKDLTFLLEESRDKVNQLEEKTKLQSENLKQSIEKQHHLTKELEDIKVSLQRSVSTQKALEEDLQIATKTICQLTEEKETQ
T3 sequence 2: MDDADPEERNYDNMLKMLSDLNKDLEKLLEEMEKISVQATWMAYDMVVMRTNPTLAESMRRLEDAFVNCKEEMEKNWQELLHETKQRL
The test is described as above.

The target in test [3] is T4, MBP-SYCP1αNcore (amino-acids 206-362) (human, UniProt Q15431 206-362).
T4 construct: SYCP1 αNcore (tetrameric core), amino-acids 206-362; source: E. coli BL21(DE3), co-expressed with SYCE3 constructs; in lysate (amylose pull-down) or co-purified (amylose, anion exchange, SEC); not shown: MBP, N-terminal, kept
T4 sequence (looked up): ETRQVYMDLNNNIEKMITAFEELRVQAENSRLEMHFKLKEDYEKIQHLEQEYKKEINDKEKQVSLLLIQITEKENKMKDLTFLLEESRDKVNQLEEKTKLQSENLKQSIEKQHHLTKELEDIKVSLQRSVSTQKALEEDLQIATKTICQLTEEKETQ
Briefly: pull-down; amylose pull-down of SYCE3 after recombinant co-expression with MBP-SYCP1 constructs or free MBP.

The target of test [4] is T3, SYCP1αNcore-SYCE3 2:1 complex (human). Briefly: condition: 920 μM SYCE3 W41E Y44E with 92 μM complex; SEC; pre-formed SYCP1-SYCE3 complex (92-93 μM) with a 10-fold molar excess of free SYCE3 or SYCE3 W41E Y44E, 1 h at 30°C; Superdex 200 Increase, 20 mM Tris pH 8.0, 150 mM KCl, 2 mM DTT; both purified.
Test [5] deals with T2, SYCP1αN-SYCE3 2:1 and 4:2 complexes (human). Briefly: condition: 930 μM SYCE3 W41E Y44E with 93 μM complex; SEC; pre-formed SYCP1-SYCE3 complex (92-93 μM) with a 10-fold molar excess of free SYCE3 or SYCE3 W41E Y44E, 1 h at 30°C; Superdex 200 Increase, 20 mM Tris pH 8.0, 150 mM KCl, 2 mM DTT; both purified.

Results are given in words; binding and its absence hold for the method and conditions named. For part of these data: Binding seen in cells or lysates may run through a third protein. Some binding calls cover weakened binding; strength is not graded here. For part of these data: Tags and fused reporters may be left off the sequences shown.

B1: SYCE3 (1-88) (protein, UniProt A1L190 1-88)
chain: MDDADPEERNYDNMLKMLSDLNKDLEKLLEEMEKISVQATWMAYDMVVMRTNPTLAESMRRLEDAFVNCKEEMEKNWQELLHETKQRL
As to B1, the binding entry in the test with SYCP1 (1-811) (human) is given as “binds”.

B2: SYCE3 (natural protein, human, UniProt A1L190 1-88, looked up)
chain: MDDADPEERNYDNMLKMLSDLNKDLEKLLEEMEKISVQATWMAYDMVVMRTNPTLAESMRRLEDAFVNCKEEMEKNWQELLHETKQRL
notes: SYCE3 without a stated truncation; Dimer alone (SEC-MALS); one chain in the 2:1 complex with SYCP1; also called SYCE3 wild-type; free SYCE3; source: E. coli BL21(DE3), purified (Ni-NTA or amylose, TEV, anion exchange, SEC), alone or co-purified with SYCP1 constructs; not shown: His or His-MBP, N-terminal, cleaved
Regarding B2, the binding result in test [1] and in test [2] was “binds” throughout.

B3: His-SYCE3 (full-length, amino-acids 1-88) (natural protein, human, UniProt A1L190 1-88, looked up)
chain: MDDADPEERNYDNMLKMLSDLNKDLEKLLEEMEKISVQATWMAYDMVVMRTNPTLAESMRRLEDAFVNCKEEMEKNWQELLHETKQRL
notes: SYCE3, full-length = amino-acids 1-88; source: E. coli BL21(DE3), co-expressed with MBP fusions; in lysate (amylose pull-down) or co-purified; not shown: His, N-terminal, kept
Turning to B3, the binding result in test [3] was “binds”.

B4: SYCE3 W41E Y44E (natural protein, human, UniProt A1L190 1-88, looked up)
chain: MDDADPEERNYDNMLKMLSDLNKDLEKLLEEMEKISVQATEMAEDMVVMRTNPTLAESMRRLEDAFVNCKEEMEKNWQELLHETKQRL
notes: SYCE3 with W41E Y44E; also called SYCE3 WY; WY mutant; source: E. coli BL21(DE3), purified, alone or co-purified with SYCP1 constructs; not shown: His or His-MBP, N-terminal, cleaved
In the case of B4, the binding result in test [4] and in test [5] was “no binding” in each case.

Source of the values: publication PMC7614228, “Structural maturation of SYCP1-mediated meiotic chromosome synapsis by SYCE3” (Nature structural & molecular biology, 2023).
